About 230 (0.21%) of roughly 110,000 compounds showed an effect of 50% or more. This is one part of the list.
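Note: 30 min substrate incubation versus DMSO and 10 µM JCP410 controls.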

Chain of DPAP1 (Q8IIJ9 whole entry, looked up): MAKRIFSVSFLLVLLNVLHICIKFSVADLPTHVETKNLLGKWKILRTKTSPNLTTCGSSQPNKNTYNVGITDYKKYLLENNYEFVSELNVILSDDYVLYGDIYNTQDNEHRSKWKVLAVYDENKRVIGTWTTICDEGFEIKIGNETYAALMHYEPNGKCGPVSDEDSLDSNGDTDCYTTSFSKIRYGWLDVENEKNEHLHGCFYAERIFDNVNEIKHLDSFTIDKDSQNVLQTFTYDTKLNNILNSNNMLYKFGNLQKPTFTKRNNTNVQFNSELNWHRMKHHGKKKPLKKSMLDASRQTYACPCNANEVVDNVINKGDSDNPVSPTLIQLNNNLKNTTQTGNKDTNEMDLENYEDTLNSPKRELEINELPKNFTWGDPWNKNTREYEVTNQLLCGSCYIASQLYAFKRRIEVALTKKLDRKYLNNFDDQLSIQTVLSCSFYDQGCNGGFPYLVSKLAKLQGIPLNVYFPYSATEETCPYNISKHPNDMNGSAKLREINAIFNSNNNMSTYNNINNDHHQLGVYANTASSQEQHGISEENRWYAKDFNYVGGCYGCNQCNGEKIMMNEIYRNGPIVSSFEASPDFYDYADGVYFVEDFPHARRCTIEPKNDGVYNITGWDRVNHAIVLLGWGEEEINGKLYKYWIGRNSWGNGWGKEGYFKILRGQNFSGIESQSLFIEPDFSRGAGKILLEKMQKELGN

This experiment concerns the target DPAP1 (Plasmodium falciparum, UniProt Q8IIJ9). Put plainly: primary screen, percent inhibition; read by cleavage of a fluorogenic dipeptide substrate; higher = more effect of the substance. The arrangement: species or system P. falciparum D10 trophozoite lysates; single well.
As to `C=CCOC(=O)c1sc(N2C(=O)c3oc4ccccc4c(=O)c3C2c2cccnc2)nc1C` (centres unmarked), the “% Inhibition @ 10 uM” value is -0.828%.

`O=C(CCCN1C(=O)c2ccccc2Sc2ncccc21)NCC1CCCO1` (centres unmarked): the “% Inhibition @ 10 uM” value was 2.86%.

`Cc1n[nH]c2c1C(c1ccc(OC(C)C)cc1)C(C#N)=C(N)O2` (centres unmarked): the “% Inhibition @ 10 uM” value is -6.27%.

Take `O=C1CC(NCc2cccnc2)C(=O)N1c1ccc(Cl)cc1` (centres unmarked): the “% Inhibition @ 10 uM” value came to 0.874%.

`COc1ccc(CN2CCc3ccccc3C2)cc1`: the “% Inhibition @ 10 uM” value was determined as 1.55%.

Turning to `COC(=O)c1ccc(/C=N/c2c(-c3ccco3)nc3ccccn23)cc1`, the “% Inhibition @ 10 uM” value was 7.62%.

With `CCC(NC(=O)Cn1nnc(-c2ccccc2)n1)C12CC3CC(CC(C3)C1)C2` (centres unmarked), the “% Inhibition @ 10 uM” value was -2.19%.

`O=C(NCc1ccco1)c1ccc(Cl)cc1`: the “% Inhibition @ 10 uM” value is on record as -1.22%.

Consider `COc1ccccc1CN1CCN(C(=O)C(c2ccccc2)c2ccccc2)CC1`, for which the “% Inhibition @ 10 uM” value is given as 10.1%.

`COc1cc2c(cc1OC)C(COc1ccccc1OC)N(C(=O)c1cccc(F)c1)CC2` (centres unmarked): the “% Inhibition @ 10 uM” value turned out to be 8.36%.

For `c1ccc(-c2nc(-c3ccncc3)no2)cc1`, the “% Inhibition @ 10 uM” value turned out to be 0.944%.

For the compound `COc1ccccc1-c1nnc(C2CCN(C(=O)c3ccccc3)CC2)o1`, the “% Inhibition @ 10 uM” value is -1.08%.

Turning to `CC1CCN(c2ccc3nnc(CCC(=O)NCc4cccnc4)n3n2)CC1`, the “% Inhibition @ 10 uM” value is on record as -3.43%.

As to `COc1ccc(C(=O)NCC2COc3ccccc3O2)cc1` (centres unmarked), the “% Inhibition @ 10 uM” value was -2.29%.

Turning to `COC(=O)c1cc2sc(Cl)cc2n1Cc1ccccc1F`, the “% Inhibition @ 10 uM” value is on record as -10%.

Turning to `Cc1ccc(N2C(=O)CC(NCC(C)c3ccccc3)C2=O)cc1` (centres unmarked), the “% Inhibition @ 10 uM” value is listed as -0.865%.

As for `FC(F)(F)c1cccc(-c2nnc(-c3ccc4c(c3)OCO4)o2)c1`, the “% Inhibition @ 10 uM” value came out at 1.38%.

As for `CCN(CC)C(=O)COc1ccc(C2C(C#N)=C(N)Oc3[nH]nc(COC)c32)cc1OC` (centres unmarked), the “% Inhibition @ 10 uM” value stood at 16.1%.

For `O=c1oc2c3c(ccc2c2c1CCCC2)OCN(Cc1ccco1)C3`, the “% Inhibition @ 10 uM” value is reported as -1.96%.

Turning to `O=C(O)c1ccc(/C=C2\SC(=O)N(CC(=O)N3CCOCC3)C2=O)cc1`, the “% Inhibition @ 10 uM” value is listed as 2.33%.

Take `COCCNC(=O)C1CCN(Cc2cnn(-c3ccccc3)c2-n2cccc2)CC1`: the “% Inhibition @ 10 uM” value is on record as 0.623%.

For `Cc1cccc(-n2nc(C)c(C(=O)N3CCc4ccccc4C3)c2-n2cccc2)c1`, the “% Inhibition @ 10 uM” value is on record as -3.61%.

As for `O=C(O)CSCc1nc2ccccc2nc1O`, the “% Inhibition @ 10 uM” value is given as 6.13%.

In the case of `O=S(=O)(c1ccccc1C(F)(F)F)N1CCC(Oc2ccc(-n3cnnn3)cc2)CC1`, the “% Inhibition @ 10 uM” value came out at 2.29%.

Regarding `Cc1cc2c(cc3c(SCC(=O)NCCc4ccccc4)nncn32)o1`, the “% Inhibition @ 10 uM” value was -2.6%.

With `CC(CCc1ccccc1)N1CCN(c2ccccc2)CC1` (centres unmarked), the “% Inhibition @ 10 uM” value is given as -0.0908%.

For the compound `CN1CCN(CCc2nnc(S)n2-c2ccc(OCc3ccccc3)cc2)CC1`, the “% Inhibition @ 10 uM” value is recorded as 11.3%.

In the case of `CC(C)OCCCNC(=O)C1CC(=O)N(C2CCCCC2)C1` (centres unmarked), the “% Inhibition @ 10 uM” value was determined as 3.24%.

On to `Cc1ccc(Nc2nc(N)nc(CN3CCN(c4ccccc4)CC3)n2)cc1`, for which the “% Inhibition @ 10 uM” value is recorded as -0.318%.

For `CS(=O)(=O)c1sc2nc(-c3ccc(Br)cc3)cc(-c3ccccc3)c2c1N`, the “% Inhibition @ 10 uM” value is listed as -1.93%.

`N#CCCN(CCN1CCCC1)S(=O)(=O)c1cccc2nsnc12`: the “% Inhibition @ 10 uM” value is 6.31%.

`C/C(=N\OC(=O)c1c(-c2ccccc2Cl)noc1C)c1ccncc1`: the “% Inhibition @ 10 uM” value is -1.4%.

Turning to `CS(=O)(=O)N1N=C(c2ccco2)CC1c1ccccc1Cl` (centres unmarked), the “% Inhibition @ 10 uM” value is -3.19%.

For the compound `CCOC(=O)N1CCN(C(=O)C2CCC(CNS(=O)(=O)c3ccccc3)CC2)CC1` (centres unmarked), the “% Inhibition @ 10 uM” value is -0.971%.

Take `Brc1ccccc1CN1CCN(c2ccccn2)CC1`: the “% Inhibition @ 10 uM” value turned out to be 2.23%.

Regarding `COc1ccc(C2CC(c3ccccc3OC(F)F)n3ncnc3N2)cc1` (centres unmarked), the “% Inhibition @ 10 uM” value is -3.37%.

As to `CCc1nnc(NC(=O)C2CCN(C(=O)c3cc4sccc4n3Cc3ccc(F)cc3)CC2)s1`, the “% Inhibition @ 10 uM” value is -5.19%.

In the case of `CCOC(=O)c1c(S(=O)(=O)Nc2ccccn2)c(C)n(C)c1C`, the “% Inhibition @ 10 uM” value was determined as 1.84%.

Turning to `CN(C)CC(=O)c1ccc(-c2ccccc2)cc1`, the “% Inhibition @ 10 uM” value is given as -3.44%.

With `CCCn1c2ccccc2c2cnn(CC(=O)NCCCN3CCCC(C)C3)c(=O)c21` (centres unmarked), the “% Inhibition @ 10 uM” value was -2.71%.

As for `Fc1ccccc1CNC1CCN(Cc2ccccc2)CC1`, the “% Inhibition @ 10 uM” value was 3.35%.

As to `CCCN(C(=O)c1ccccc1OCC)c1nc(-c2ccccc2)cs1`, the “% Inhibition @ 10 uM” value is 0.128%.

With `CCOc1ccc(Cl)cc1CNCCSc1nnnn1-c1ccccc1`, the “% Inhibition @ 10 uM” value is listed as -1.11%.

Regarding `O=S1(=O)N=C(Nc2cc(Cl)ccc2Cl)c2ccccc21`, the “% Inhibition @ 10 uM” value came to 0.98%.

In the case of `CC1=C(C(=O)OC2CCCC2)C(c2ccc(Br)cc2)NC(=O)N1` (centres unmarked), the “% Inhibition @ 10 uM” value turned out to be 0.565%.

In the case of `OC(COc1ccc2oc3c(c2c1)CCCC3)CN1CCN(c2ccccc2)CC1` (centres unmarked), the “% Inhibition @ 10 uM” value is listed as -6.82%.

Take `COCC(C)NC(=O)c1c(-c2c(Cl)cccc2Cl)noc1C` (centres unmarked): the “% Inhibition @ 10 uM” value is -8.41%.

Regarding `Cc1nc2c(-c3ccccc3)c(C)nn2c(C)c1CCC(=O)N1CCC2(CC1)OCCO2`, the “% Inhibition @ 10 uM” value was -4.1%.

In the case of `Cc1ccc(Cn2c(C)c(CNC3CCCCC3C)c(C(=O)O)c2C)cc1` (centres unmarked), the “% Inhibition @ 10 uM” value is listed as 2.99%.

For `CCC(C)NC(=O)c1cc(-c2ccc(Cl)c(Cl)c2)on1` (centres unmarked), the “% Inhibition @ 10 uM” value was -2.47%.

Values taken from article PMC6919601, “Identification of Plasmodium dipeptidyl aminopeptidase allosteric inhibitors by high throughput screening” (PLoS ONE, 2019).
